{"source": "PubChem BioAssay AID493208", "about": "(National Center for Advancing Translational Sciences (NCATS), 2011)", "note": "In all, about 44,000 compounds went through this assay and about 340 (0.77%) were called active. About 5% were inconclusive and are not listed. Calls come from the whole dose curve; as a rule, active = well fitted inhibition curve with a large enough effect; inconclusive = small, poorly fitted or top-dose-only effect; inactive = flat fitted curve, though single readings scatter. The list shows a part of the results. Potency is the fitted concentration of half-maximal effect.", "data": [{"test": "Acumen qHTS Assay for Inhibitors of the mTORC1 Signaling Pathway in MEF (Tsc2-/-, p53-/-) Cells: Sytravon; note: nearly all actives have a fitted effect of over 50% in size;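 for activity change, negative = inhibition: plate controls were DMSO for no effect and rapamycin for full effect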", "conditions": "phospho-rpS6 immunofluorescence/PI, 24 h; series mostly up to 38.3 µM; activity change, negative = inhibition: at the top concentration", "in_short": "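Readout is phospho-S6 Alexa 488 signal normalized to PI per well, reported as % active cells with thresholds set from rapamycin (7.5 nM) and DMSO controls. Cells: Tsc2-/-, p53-/- MEFs, 24 hrs compound at 37 C; PI cell number serves as viability.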", "values": [{"smiles": "Cc1ccc(-n2c(/C=C/c3cccc4ccccc34)nc3ccccc3c2=O)cc1", "activity change, negative = inhibition": "inactive: 8.83%"}, {"smiles": "Cc1cccc(CN2C(=O)CN=C(c3ccccc3Cl)c3cc(Cl)ccc32)c1", "activity change, negative = inhibition": "inactive: -3.36%"}, {"smiles": "O=C(Nc1ccc(OC(F)(F)F)cc1)c1cccn(Cc2ccccc2Cl)c1=O", "activity change, negative = inhibition": "inactive: -4.52%"}, {"smiles": "O=C(c1ccc2c(c1)N(Cc1c(F)cccc1Cl)C(=O)c1ccccc1S2)N1CCC2(CC1)OCCO2", "activity change, negative = inhibition": "inactive: -1.22%"}, {"smiles": "Cc1ccc(C)c(CN2C(=O)c3ccccc3Sc3ccc(C(=O)N4CCC5(CC4)OCCO5)cc32)c1", "activity change, negative = inhibition": "inactive: 7.27%"}, {"smiles": "CCn1c(CN2CCN(C)CC2)nc2ccccc21", "activity change, negative = inhibition": "inactive: -0.803%"}, {"smiles": "CCSc1nnc(NC(=O)c2cccn(Cc3ccc(Cl)cc3)c2=O)s1", "activity change, negative = inhibition": "inactive: -0.122%"}, {"smiles": "Cc1cccc(-n2c(/C=C/c3cccc4ccccc34)nc3ccccc3c2=O)c1", "activity change, negative = inhibition": "inactive: 6.26%"}, {"smiles": "O=c1c2ccccc2nc(/C=C\\c2cccc(Br)c2)n1-c1ccc(O)cc1", "activity change, negative = inhibition": "inactive: -29.8%"}, {"smiles": "Cc1ccc(-n2c(/C=C/c3cccc(C(F)(F)F)c3)nc3ccccc3c2=O)cc1", "activity change, negative = inhibition": "inactive: 9.43%"}, {"smiles": "NC(=O)c1ccc(NC(=O)c2cccn(Cc3ccccc3)c2=O)cc1", "activity change, negative = inhibition": "inactive: 3.17%"}, {"smiles": "Cc1c(C(c2ccc(O)cc2)c2c(O)c3ccccc3oc2=O)c(=O)n(-c2ccccc2)n1C", "note": "(stereo not given)", "activity change, negative = inhibition": "inactive: -1.95%"}, {"smiles": "CC(=O)c1ccc(NC(=O)c2sc3nc4c(cc3c2N)N2CCC4CC2)cc1", "activity change, negative = inhibition": "inactive: -0.128%"}, {"smiles": "Cc1ccc2scc(N3CCN(C)CC3)c(=O)c2c1", "activity change, negative = inhibition": "inactive: -7.99%"}, {"smiles": "Cc1ccc(-n2c(/C=C/c3ccccc3)nc3ccccc3c2=O)cc1C", "activity change, negative = inhibition": "inactive: 4.72%"}, {"smiles": "CCOc1ccc(CN(CCc2ccc3c(c2)OCO3)Cc2cccc(Br)c2)cc1", "activity change, negative = inhibition": "inactive: -6.61%"}, {"smiles": "O=C(Nc1nc2ccccc2s1)c1cccn(Cc2ccccc2)c1=O", "activity change, negative = inhibition": "inactive: -2.22%"}, {"smiles": "CCCc1nc(SC)ncc1C(=O)Nc1ccc(Cl)cc1C(=O)c1ccccc1", "activity change, negative = inhibition": "inactive: -5.31%"}, {"smiles": "Cc1nnc(NC(=O)c2cccn(Cc3ccccc3)c2=O)s1", "activity change, negative = inhibition": "inactive: -4.58%"}, {"smiles": "Cc1cccc(OC(C)C(=O)NCC2(N(C)C)CCCCC2)c1C", "note": "(stereo not given)", "activity change, negative = inhibition": "inactive: -1.17%"}, {"smiles": "CCOc1ccc(CN(CCc2ccc3c(c2)OCO3)Cc2ccc(CC)cc2)cc1", "activity change, negative = inhibition": "inactive: 0.989%"}, {"smiles": "Cc1oc2cc3oc(=O)c(CCC(=O)N4CCCCC4)c(C)c3cc2c1C", "activity change, negative = inhibition": "inactive: -3.22%"}, {"smiles": "Cc1ccccc1-n1nc(C)c2c1NC(=O)CSC2c1ccccc1C(F)(F)F", "note": "(stereo not given)", "activity change, negative = inhibition": "inactive: -1.99%"}, {"smiles": "COc1ccccc1CN1CCN(C(=O)COc2cccc(C)c2)CC1", "activity change, negative = inhibition": "inactive: 6.02%"}, {"smiles": "COc1ccc(NC(=O)CN2C(=O)CN=C(c3ccccc3)c3ccccc32)c(OC)c1", "activity change, negative = inhibition": "inactive: -5.67%"}, {"smiles": "COc1ccc(C2CC(=O)Oc3c2c(=O)oc2ccccc32)c(OC)c1OC", "note": "(stereo not given)", "activity change, negative = inhibition": "inactive: -1.19%"}, {"smiles": "Cc1ccc(Cn2cccc(C(=O)Nc3ccc(C)c(Cl)c3)c2=O)cc1", "activity change, negative = inhibition": "inactive: 2.05%"}, {"smiles": "Cc1cc(OCC(=O)N2CCN(CCc3ccncc3)CC2)cc(C)c1Cl", "activity change, negative = inhibition": "inactive: 2.51%"}, {"smiles": "COc1ccc(NC(=O)CCc2nc(C3=CCN(Cc4cccc(C)c4)CC3)no2)c(OC)c1", "activity change, negative = inhibition": "inactive: -16.7%"}, {"smiles": "COc1ccc(OC)c(CCNCc2c(C(=O)O)c(C)n(Cc3ccc(F)cc3Cl)c2C)c1", "activity change, negative = inhibition": "inactive: 0.609%"}, {"smiles": "Cc1cccc(C)c1OCC(=O)Nc1ccc(Cl)cc1C(=O)c1ccccc1", "activity change, negative = inhibition": "inactive: -1.11%"}, {"smiles": "O=C(NCCSc1c(-c2ccc(F)cc2)[nH]c2ccccc12)c1ccc(S(=O)(=O)N2CCOCC2)cc1", "Potency": "active: 14.7 µM"}, {"smiles": "O=C(COc1ccccc1[N+](=O)[O-])N1CCN(CCc2ccncc2)CC1", "activity change, negative = inhibition": "inactive: 0%"}, {"smiles": "COc1ccc(C)cc1NC(=O)c1cccn(Cc2ccccc2Cl)c1=O", "activity change, negative = inhibition": "inactive: 0.8%"}, {"smiles": "O=C1CC(c2ccccc2Br)c2c(c3ccccc3oc2=O)O1", "note": "(stereo not given)", "activity change, negative = inhibition": "inactive: -4.32%"}, {"smiles": "Cc1ccc(-n2c(/C=C/c3ccccc3)nc3ccccc3c2=O)cc1Cl", "activity change, negative = inhibition": "inactive: 5.73%"}, {"smiles": "Cn1c(=O)n(C)c2cc(CNCCc3ccccc3F)ccc21", "activity change, negative = inhibition": "inactive: -9.18%"}, {"smiles": "N#Cc1ccccc1NC(=O)c1cccn(Cc2ccccc2)c1=O", "activity change, negative = inhibition": "inactive: -14.8%"}, {"smiles": "CCOC(=O)c1ccc(NC(=O)c2cccn(Cc3ccccc3F)c2=O)cc1", "activity change, negative = inhibition": "inactive: 0.326%"}, {"smiles": "COc1ccc(Cl)cc1NC(=O)c1sc2nc3c(cc2c1N)N1CCC3CC1", "activity change, negative = inhibition": "inactive: -1.22%"}, {"smiles": "CCC(C(=O)Nc1ccccc1F)N1C(=O)CN=C(c2ccccc2)c2ccccc21", "note": "(stereo not given)", "activity change, negative = inhibition": "inactive: -10.8%"}, {"smiles": "CC(C)c1ccc(NC(=O)CN2C(=O)CN=C(c3ccccc3)c3ccccc32)cc1", "activity change, negative = inhibition": "inactive: 7.26%"}, {"smiles": "CCCc1ccc(OCC(=O)Nc2ccc(Cl)cc2C(=O)c2ccccc2)cc1", "activity change, negative = inhibition": "inactive: 13.8%"}, {"smiles": "Cc1cccc(CN2C(=O)CN=C(c3ccccc3)c3cc(Cl)ccc32)c1", "activity change, negative = inhibition": "inactive: -6.59%"}, {"smiles": "COc1ccc(-c2nc(CN3C(=O)CN=C(c4ccccc4Cl)c4cc(Cl)ccc43)c(C)o2)cc1OC", "activity change, negative = inhibition": "inactive: 0.9%"}, {"smiles": "O=C(Cn1cc(C(=O)c2ccccc2)c2ccccc21)Nc1ccc(Br)cc1", "activity change, negative = inhibition": "inactive: -3.98%"}, {"smiles": "Cc1cc(NC(=O)c2cccn(Cc3cccc([N+](=O)[O-])c3)c2=O)no1", "activity change, negative = inhibition": "inactive: -5.58%"}, {"smiles": "CCOc1ccc2nc(NC(=O)c3cccn(Cc4ccccc4C)c3=O)sc2c1", "activity change, negative = inhibition": "inactive: 0.0858%"}, {"smiles": "CCC(=O)N1CC(=O)Nc2ccc(C)cc2C1c1ccc(F)cc1", "note": "(stereo not given)", "activity change, negative = inhibition": "inactive: -18.6%"}, {"smiles": "Cn1c(=O)n(C)c2cc(CNCCc3ccccc3)ccc21", "activity change, negative = inhibition": "inactive: 0%"}]}]}
